To fix the notation:
B1: LINE1-mini (parent)
chain: GGCAGAGCUCAACACAGCGUGGCAAAGUGGCUGUGGCUAGACUGCC

The source gives no read counts; variants with many changes may rest on few reads.

This series covers variants of B1. Description: self-cleavage, relative activity (ratio to wild type); higher = more cleavage; in vitro, sequencing; the parent is a self-cleaving ribozyme.
In the case of GCCAGAGCUCAACACAGCUUGGCGAAGUGGCUUUGGCUAGACUGCC [G2C G19U A24G G33U], the self-cleavage worked out at 0.01.

With GCCAGAGCUCAACACAGCCUGGCAAAGUGACUUUGGCGAUACUGCC [G2C G19C G30A G33U U38G G40U], the self-cleavage was 0.02.

Turning to GCCAGAGCUCAACACAACGUGGCAAAGUGGCUGUGGCUUGAUUGCC [G2C G17A A39U C42U], the self-cleavage came to 0.11.

For the variant GCCAGAGCUCAACACAACGUGGCAAGUUGGCUGUGGCUAGACUGCC [G2C G17A A26G G27U], the self-cleavage turned out to be 0.06.

With GCCAGACAUCAAAACAGCGUGGCUAAUUGACUGUGGCUAGACUGCC [G2C G7C C8A C13A A24U G27U G30A], the self-cleavage was 0.08.

Consider GCCAGAACUGAACACAGUGUGGCAGAGUGGCUGUGGCUAGACUGCC [G2C G7A C10G C18U A25G], for which the self-cleavage is 0.01.

As to GCCAUAGCUCAAAACAGGGUGGCAAAGUGGCUGUGGCUAGACUGCC [G2C G5U C13A C18G], the self-cleavage was 0.07.

In the case of GCCAGAGCUCAACACAGCGUCGCAAAGUGGCUGUGGCUAGAACGCC [G2C G21C C42A U43C], the self-cleavage was 0.06.

Turning to GCCAGAACUCAACACAGGGUGGCACAGUGGCUGUGGCUAGACUGCC [G2C G7A C18G A25C], the self-cleavage came out at 0.08.

For GCCAGAGCUCAACACAGCUUGGCAAAGUGGCUGUGGCUAUACUGCC [G2C G19U G40U], the self-cleavage amounted to 0.07.

Take GCCAGAGCUCAACACAGCUUGGCAAAAUGGCUGUGGCUAGACUGCC [G2C G19U G27A]: the self-cleavage came to 0.31.

For GCCAGAACUCAACACGGCGUGGCAAAGUGGCUGUGGCCAGACUGCC [G2C G7A A16G U38C], the self-cleavage is 0.02.

For GCCACAGCUCAACACAGCUUAGCAAAGUGGCUGUGGCUAGACUGCC [G2C G5C G19U G21A], the self-cleavage came to 0.03.

As to GCCAGACCUCAACACAGCGUGGCAAAGUGGCUGUGGCUAGAUUGCC [G2C G7C C42U], the self-cleavage is 0.12.

For GCCACAGCUCAACACAGCGUGGCAAAGUGGCUGUGGCUGGGCUGCC [G2C G5C A39G A41G], the self-cleavage was 0.02.

As to GCCAGAGCUCAACACAUCGCGGCAAAGUGGAUGUUGCUAGACUGCU [G2C G17U U20C C31A G35U C46U], the self-cleavage is 0.09.

As for GCCAGAGCUCAACACAUCGUGGCAAAGUGGCUGUGGAUAGACUGCC [G2C G17U C37A], the self-cleavage was found to be 0.32.

On to GCCAGAGCUCAACACAUCGUGGCAAAGUGGCUGUGGUUAGACUGCC [G2C G17U C37U], for which the self-cleavage came to 0.01.

On to GCCAGAGCUCAACACAGCGUGCCAAAGUUGCUGUGGCUAGACUGCC [G2C G22C G29U], for which the self-cleavage came out at 0.11.

For the variant GCCAGAGCUCAACACAGCGUUGCAAAGUGGCUGUGGCUAGACUGUC [G2C G21U C45U], the self-cleavage is 0.13.

For GCCAGAGCUCAACACAGCGUGGCAAACUGGCCGUGGCUAGACUGCC [G2C G27C U32C], the self-cleavage came out at 0.04.

Regarding GCCAGAGCUCAACACAGCGUAGCAAACUGGCUGUGGCAAGACUGCC [G2C G21A G27C U38A], the self-cleavage was determined as 0.07.

For the variant GCCACAGCUCGACACAGCGUGGCAAAGUGGCUGUUGCUAUACUGCC [G2C G5C A11G G35U G40U], the self-cleavage is 0.03.

Regarding GCCAUAGCUCAACACAGCGUGGCAAAGUGGCUGUGGCUACACUGCC [G2C G5U G40C], the self-cleavage amounted to 0.03.

Regarding GCCAGAUCUCAAAACAGCGUGCCAAAGAGGCUGUGGCUAGACUGCC [G2C G7U C13A G22C U28A], the self-cleavage was found to be 0.03.

As to GCCAGAGCUCAACACAACGUGGCAAAGUGGCUGUGGCUAGACUUCC [G2C G17A G44U], the self-cleavage turned out to be 0.02.

For GCCAGAGCUCAACACAACGUAGCAAAGUGGCUGUGGCUAGAGUGCC [G2C G17A G21A C42G], the self-cleavage came to 0.04.

GCCAGAGCUCAACACAGCGUGCCAACGUGGCUAUGGCUAGACUGCC [G2C G22C A26C G33A]: the self-cleavage stood at 0.04.

For the variant GCCAGAUCUCAACACAGCCUGGCAAAGUGGCUCUGGCCAGACUGCC [G2C G7U G19C G33C U38C], the self-cleavage came to 0.04.

Turning to GCCAGAACUCAACACAGCGUAGCAAAGUGGCUGUUGCUAGACUGCC [G2C G7A G21A G35U], the self-cleavage is 0.5.

Turning to GCCAGAGCUCAACACAGCGUGACAAAGGGGCUGUGGCUAGACUGCC [G2C G22A U28G], the self-cleavage amounted to 0.04.

Take GCCAGAGCUCAACACAGCCUGGCAAAGUGGCUGUGGCUAGACUAAC [G2C G19C G44A C45A]: the self-cleavage worked out at 0.01.

Regarding GCCACAGCUCAACACAGCGUGGCGAAGUGGCUGUGGCUAGACUGUC [G2C G5C A24G C45U], the self-cleavage worked out at 0.03.

Regarding GCCAUAGCUCAACAAAGCGUGGCAAAGUCGUUGUGGCUAGCCUGCC [G2C G5U C15A G29C C31U A41C], the self-cleavage was determined as 0.02.

GCCAGAGCUCAACACAGCGUGCCAAAGUGGCUGUUGCGUGACUGCC [G2C G22C G35U U38G A39U]: the self-cleavage is 0.08.

As to GCCAUAGCACAACACAGCGUGGCAAAGUGGCUGUGGCUAAACUGCC [G2C G5U U9A G40A], the self-cleavage is 0.01.

In the case of GCCAGAGCUCAACACAGCUUGGGAAAGUGGGUGUGGCUAGACUGCC [G2C G19U C23G C31G], the self-cleavage was found to be 0.08.

In the case of GCCAUAGCUCAACACAGCGUGGCAAAGUGGCUGUGGCUUGACUGCA [G2C G5U A39U C46A], the self-cleavage worked out at 0.02.

On to GCCACAGCUCAACACAUCGUGGCAAAGUGGAUGUGGCUAGACUGCC [G2C G5C G17U C31A], for which the self-cleavage was 0.01.

Regarding GCCAGAGCUCAACACAGCUUGGCAAAGUGGCUGUGGCUAGACUGCU [G2C G19U C46U], the self-cleavage stood at 0.02.

Take GCCAGAGCUCAACACAGCGUGACAAAGUGGCUGUGUCUAAUCUGUC [G2C G22A G36U G40A A41U C45U]: the self-cleavage worked out at 0.11.

GCCAGAACUCAACGCAGCGUGGCAAAGUGGCAAUGGCUAGACUGCC [G2C G7A A14G U32A G33A]: the self-cleavage stood at 0.01.

As for GCCAGAACUCAACUCAGCGUGGCAAAGUGGCUGGGGCUAGACUACC [G2C G7A A14U U34G G44A], the self-cleavage came to 0.18.

On to GCCAGAGCUCAACACAGCGUCGCAAAGUGGCUGUGGCUCGACUGCC [G2C G21C A39C], for which the self-cleavage worked out at 0.02.

As for GCCAGAGCUCAACACAGCUUGGCAAAUUGGCUGUGACUAGACUGCC [G2C G19U G27U G36A], the self-cleavage stood at 0.1.

Regarding GCCAAAGCUCAACACAGCGUGGCAAAGUGACUGUGGCUAGACUGCC [G2C G5A G30A], the self-cleavage amounted to 0.05.

Regarding GCCAGAGCUCAACACAGCGUGGCAAAUUGGCUGUUGCUAGACUGUC [G2C G27U G35U C45U], the self-cleavage came out at 0.02.

GCCAGAGCUCAACACAGCGUGACAAAGUGGCUGUGGCUAUACUGCC [G2C G22A G40U]: the self-cleavage worked out at 0.02.

For GCCACAUCUCAACAAAGCGUGGCAAAGUGGCUGUGGCUAGACUGCC [G2C G5C G7U C15A], the self-cleavage came out at 0.05.

As for GCCAGACCUCAACACAGAGUGGCAAAGUGGCUGUGGCUAGACUGCU [G2C G7C C18A C46U], the self-cleavage came out at 0.09.

As to GCCAGAGCUCAACACAGCGUGGCAAACUGGCUGUGGCUACCCUGCC [G2C G27C G40C A41C], the self-cleavage amounted to 0.18.

Turning to GCCAGAGCUCAACACAGCGUGGCAAACUGGCCGUGGCUGGACUGCC [G2C G27C U32C A39G], the self-cleavage was determined as 0.05.

With GCCACAGCUCGACACAGCGUGGCAAAGGGGCUGUGGCUAGACUGGC [G2C G5C A11G U28G C45G], the self-cleavage was 0.01.

As to GCCAGACCUCACCACAGCGUGGGAAAGUGGCUGUGGCUAGACUGCC [G2C G7C A12C C23G], the self-cleavage came out at 0.07.

Turning to GCCAGAUCUCAUCACAGCGUGGCAACGUGGCUGUGGCUAGACUGCC [G2C G7U A12U A26C], the self-cleavage is 0.38.

As for GCCAGAGCUCAACACACCUUGGCAAAGUGGCGGUGGCUAGACUGCC [G2C G17C G19U U32G], the self-cleavage amounted to 0.08.

These data come from the RNAGym collection of RNA variant scans (doi:10.7554/elife.90254).
